Data on one molecule can be found in PubChem BioAssay (NCI).

The subject of the experiment is MDA-MB-468 breast. Description: inhibition of tumour cell growth, NCI panel, 48 h.

SMILES strings stand for the structures.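 Interpolation was linear, between the two tested concentrations surrounding the appropriate level; five concentrations were tested over 48 hours in 96-well plates. TGI: concentration producing complete growth inhibition.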 The source holds more than one record for some entries. The list is limited to them. An entry can have further records. Results that share an entry are repeated measurements in other runs, samples, wells, individuals or studies. Brackets tell where a record comes from. Letters count within one entry.

Take `CCN(CC)CCCC(C)Nc1cnc(C(=O)Nc2cc(F)cc3cccnc23)cn1` (stereo unspecified): the TGI is 13.6 µM [sample A, 1 test] and 1.34 µM [sample B, mean of 2 tests].
